Results as given in the antibiotic and cytotoxicity screens of Wong et al. (2023).
This is one part of the list.

How the values were obtained:
HSkMC = human skeletal muscle cells; test: cytotoxicity call (relative viability < 0.9); settings: 10 µM
HepG2 = test: cytotoxicity call (relative viability < 0.9); settings: 10 µM
S. aureus RN4220 = test: growth inhibition call (relative growth <= 0.2); settings: 50 µM

| Structure (SMILES) | cytotoxicity call (HSkMC) | cytotoxicity call (HepG2) | growth inhibition call (S. aureus RN4220) |
| --- | --- | --- | --- |
| C[C@@H]1[C@@H]([Si](C)(C)F)[C@H](CCn2cc([C@H](O)c3ccccc3)nn2)O[C@@]12C(=O)N(c1ccccc1)c1ccccc12 | inactive | active | inactive |
| Nc1ncn([C@H]2C[C@H](OP(=O)(O)OC[C@H]3O[C@@H](n4cnc5c(=O)nc(N)[nH]c54)C[C@@H]3O)[C@@H](CO)O2)c(=O)n1 | inactive | inactive | inactive |
| C[C@@H]1CN([C@@H](C)CO)C(=O)Cc2cc(NC(=O)Nc3cccc4ccccc34)ccc2O[C@H]1CN(C)C(=O)Nc1ccc(F)cc1 | inactive | inactive | inactive |
| CN(C)CC(c1ccc(O)cc1)C1(O)CCCCC1.O=C(O)CCC(=O)O (configuration not stated) | inactive | inactive | inactive |
| COCCOC(=O)N1C(=O)[C@@]2(c3cc(C#CCNC(N)=O)ccc31)[C@H](C(N)=O)[C@H]1C(=O)O[C@H](c3ccccc3)[C@H](c3ccccc3)N1[C@@H]2c1ccccc1OCCO | inactive | inactive | inactive |
| Cc1ccc(S(=O)(=O)Nc2ccc3c(c2)CC(=O)N([C@H](C)CO)C[C@@H](C)[C@@H](CN(C)S(=O)(=O)c2cccs2)O3)cc1 | inactive | inactive | inactive |
| COc1ccc(NC(=O)Nc2ccc3c(c2)C(=O)N([C@@H](C)CO)C[C@H](C)[C@@H](CN(C)C(=O)C2CCCCC2)OCCCC[C@H](C)O3)cc1 | inactive | inactive | inactive |
| C[C@H](CO)N1C[C@H](C)[C@H](CN(C)Cc2ccc(Cl)c(Cl)c2)Oc2ccc(NC(=O)CCCCCC(=O)Nc3ccccc3N)cc2C1=O | inactive | inactive | inactive |
| C[C@@H]1CN([C@@H](C)CO)C(=O)Cc2cc(NC(=O)CCCCCC(=O)Nc3ccccc3N)ccc2O[C@@H]1CN(C)S(C)(=O)=O | inactive | inactive | inactive |
| CC(C)NC(=O)Nc1ccc2c(c1)CC(=O)N([C@@H](C)CO)C[C@@H](C)[C@H](CN(C)S(=O)(=O)c1cccs1)O2 | inactive | inactive | inactive |
| C[C@H]1CN([C@@H](C)CO)C(=O)c2cc(NC(=O)Nc3cccc4ccccc34)ccc2O[C@@H]1CN(C)Cc1ccc(Cl)c(Cl)c1 | inactive | inactive | inactive |
| Cc1noc(C)c1NC(=O)N(C)C[C@H]1Oc2cc(C#CCN(C)C)ccc2S(=O)(=O)N([C@H](C)CO)C[C@H]1C | inactive | inactive | inactive |
| CC(C)NC(=O)Nc1ccc2c(c1)C(=O)N([C@@H](C)CO)C[C@@H](C)[C@H](CN(C)C(=O)C1CCCCC1)OCCCC[C@@H](C)O2 | inactive | inactive | inactive |
| C[C@H](CO)N1C[C@H](C)[C@H](CN(C)C(=O)Cc2ccccc2)OCCCC[C@H](C)Oc2ccc(NS(=O)(=O)c3ccc(F)cc3)cc2C1=O | inactive | inactive | inactive |
| COCC#Cc1ccc2c(c1)O[C@@H](CN(C)S(=O)(=O)c1cccc(OC)c1)[C@H](C)CN([C@H](C)CO)S2(=O)=O | inactive | inactive | inactive |
| C[C@H]1CCCCO[C@@H](CN(C)S(=O)(=O)c2cccs2)[C@@H](C)CN([C@@H](C)CO)C(=O)c2cc(NC(=O)Nc3ccc(C(F)(F)F)cc3)ccc2O1 | inactive | inactive | inactive |
| CC1=C(C(N)=O)[C@@H](c2cccnc2)n2nnnc2N1 | inactive | inactive | inactive |
| C[C@H]1CN([C@@H](C)CO)C(=O)c2cc(C#Cc3ccccc3F)cnc2O[C@H]1CN(C)C(=O)Cc1ccncc1 | inactive | inactive | inactive |
| C[C@@H]1CN([C@H](C)CO)S(=O)(=O)c2ccc(Br)cc2O[C@@H]1CN(C)CC1CCOCC1 | inactive | inactive | inactive |
| Cc1cc(C(=O)Nc2cccc3c2O[C@H](CN(C)Cc2ccc(C(=O)O)cc2)[C@H](C)CN([C@@H](C)CO)C3=O)n(C)n1 | inactive | inactive | inactive |
| Cc1ccc(S(=O)(=O)Nc2ccc3c(c2)CC(=O)N([C@@H](C)CO)C[C@H](C)[C@H](CN(C)Cc2ccc(Oc4ccccc4)cc2)O3)cc1 | active | inactive | inactive |
| C[C@H](CO)N1C[C@H](C)[C@@H](CN(C)S(=O)(=O)c2ccccc2F)Oc2ncc(C#Cc3ccccc3F)cc2C1=O | active | inactive | inactive |
| C[C@H](CO)N1C[C@H](C)[C@@H](CN(C)C(=O)Nc2ccc(C(C)(C)C)cc2)OCc2cnnn2CCCC1=O | inactive | inactive | inactive |
| COc1cccc(S(=O)(=O)N(C)C[C@@H]2Oc3ncc(C#Cc4ccc(F)cc4)cc3C(=O)N([C@H](C)CO)C[C@@H]2C)c1 | inactive | inactive | inactive |
| C[C@H](CO)N1C[C@H](C)[C@H](CN(C)S(=O)(=O)c2ccc(F)cc2)OCCCC[C@H](C)Oc2ccc(NC(=O)Nc3ccc4c(c3)OCO4)cc2C1=O | inactive | inactive | inactive |
| Cc1ccc(S(=O)(=O)Nc2ccc3c(c2)C(=O)N([C@@H](C)CO)C[C@@H](C)[C@@H](CN(C)CC2CCCCC2)OCCCC[C@H](C)O3)cc1 | inactive | inactive | inactive |
| C[C@H]1CCCCO[C@@H](CN(C)C(=O)Nc2ccc(F)cc2)[C@@H](C)CN([C@@H](C)CO)C(=O)c2cc(NC(=O)C3CCCCC3)ccc2O1 | inactive | inactive | inactive |

| Structure (SMILES) | cytotoxicity call (HSkMC) | cytotoxicity call (HepG2) | growth inhibition call (S. aureus RN4220) |
| --- | --- | --- | --- |
| Cc1cc(C(=O)Nc2ccc3c(c2)C(=O)N(C)[C@H]2CC[C@H](CC(=O)NCC(F)(F)F)O[C@@H]2CO3)no1 | inactive | inactive | inactive |
| CC(C)(CCCCCC(O)CCCCCC(C)(C)C(=O)O)C(=O)O | inactive | inactive | inactive |
| OC[C@H]1CC[C@@H]2O[C@H](CCc3ccc(C#CCc4ccccc4)cc3)[C@@H](n3cc(-c4ccccc4)nn3)C[C@@H]2O1 | inactive | inactive | inactive |
| COc1ccc(S(=O)(=O)N[C@H]2C=C[C@H](CC(=O)NCCc3ccncc3)O[C@H]2CO)cc1 | inactive | inactive | inactive |
| C[C@@H]1CCCCO[C@@H](CN(C)C(=O)Nc2ccccc2)[C@H](C)CN([C@H](C)CO)C(=O)c2cc(NC(=O)Nc3cccc4ccccc34)ccc2O1 | inactive | inactive | inactive |
| Cc1noc(C)c1S(=O)(=O)N(C)C[C@H]1OCCCC[C@@H](C)Oc2ccc(NC(=O)Nc3ccccc3)cc2C(=O)N([C@@H](C)CO)C[C@H]1C | inactive | inactive | inactive |
| O=C(C[C@@H]1C[C@H]2c3cc(NC(=O)Nc4ccc(C(F)(F)F)cc4)ccc3O[C@H]2[C@@H](CO)O1)NCc1ccc(Cl)cc1 | inactive | inactive | inactive |
| COc1ccc(NC(=O)N(C)C[C@H]2Oc3ccc(NC(=O)CCCCCC(=O)Nc4ccccc4N)cc3CC(=O)N([C@@H](C)CO)C[C@@H]2C)cc1 | inactive | inactive | inactive |
| C[C@@H]1CN([C@H](C)CO)C(=O)Cc2cc(NC(=O)CCCCCC(=O)Nc3ccccc3N)ccc2O[C@@H]1CN(C)S(=O)(=O)c1cn(C)cn1 | inactive | inactive | inactive |
| CCC(=O)Nc1ccc2c(c1)OC[C@H](C)N(C(=O)CN1CCOCC1)C[C@H](C)[C@@H](OC)CN(C)C2=O | inactive | inactive | inactive |
| Cc1noc(C)c1NC(=O)N(C)C[C@H]1Oc2ccc(NS(=O)(=O)c3cn(C)cn3)cc2C(=O)N([C@@H](C)CO)C[C@H]1C | inactive | inactive | inactive |
| C[C@@H]1CN([C@@H](C)CO)C(=O)c2cc(-c3ccncc3)cnc2O[C@H]1CN(C)C(=O)Nc1ccc2c(c1)OCO2 | inactive | inactive | inactive |
| COc1ccc(CN(C)C[C@@H]2OCCCC[C@H](C)Oc3ccc(NC(=O)Nc4ccc(OC)cc4)cc3C(=O)N([C@@H](C)CO)C[C@@H]2C)cc1 | inactive | active | inactive |
| C[C@@H]1CN([C@@H](C)CO)C(=O)c2cccc(NC(=O)c3ccc(-c4nccs4)cc3)c2O[C@H]1CN(C)Cc1ccc(C(=O)O)cc1 | inactive | inactive | inactive |
| C[C@H]1CN([C@@H](C)CO)C(=O)c2c(c3ccccc3n2C)-c2ccccc2CO[C@H]1CN(C)C(=O)c1cc(Cl)cc(Cl)c1 | inactive | inactive | inactive |
| COc1ccc(NC(=O)N(C)C[C@@H]2Oc3c(NC(=O)Nc4ccc(C(F)(F)F)cc4)cccc3C(=O)N([C@@H](C)CO)C[C@H]2C)cc1 | inactive | inactive | inactive |
| CO[C@@H]1CN(C)C(=O)c2cc(NS(=O)(=O)c3ccccc3C)ccc2OC[C@@H](C)N(S(C)(=O)=O)C[C@@H]1C | inactive | inactive | inactive |
| C[C@H](NC(=O)N(C)C[C@@H]1OCc2ccccc2-c2c(n(C)c3ccccc23)C(=O)N([C@H](C)CO)C[C@@H]1C)c1ccccc1 | inactive | inactive | inactive |
| CCCNC(=O)C[C@H]1CC[C@H]2[C@H](COc3ccc(NC(=O)c4ccc5c(c4)OCO5)cc3C(=O)N2C)O1 | inactive | inactive | inactive |
| Cc1ccc2nc(/N=C/c3ccc(Cl)cc3Cl)sc2c1 | inactive | inactive | inactive |
| CC(C)NC(=O)N(C)C[C@@H]1OCc2cn(nn2)CCCC(=O)N([C@H](C)CO)C[C@H]1C | inactive | inactive | inactive |
| C[C@@H]1CN([C@H](C)CO)C(=O)Cc2cc(NS(=O)(=O)c3ccccc3)ccc2O[C@@H]1CN(C)Cc1ccc(Cl)c(Cl)c1 | active | active | inactive |
| COc1ccc(OC)c([C@H]2C(C(=O)c3c(C)nc4c(C)cccn34)=C(O)C(=O)N2CCN2CCOCC2)c1 | inactive | inactive | inactive |
| COCC(=O)N(C)C[C@@H]1Oc2cc(-c3ccc(OC)cc3)ccc2S(=O)(=O)N([C@@H](C)CO)C[C@@H]1C | inactive | inactive | inactive |
| C[C@@H]1CN([C@H](C)CO)C(=O)c2cc(C#Cc3ccccc3)cnc2O[C@H]1CN(C)C(=O)CCN1CCCCC1 | inactive | inactive | inactive |
| COCC(=O)N(C)C[C@H]1Oc2cc(-c3ccc(OC)cc3)ccc2S(=O)(=O)N([C@@H](C)CO)C[C@H]1C | inactive | inactive | inactive |
| C[C@@H]1CN([C@@H](C)CO)C(=O)c2cc(NS(=O)(=O)c3ccc(F)cc3)ccc2O[C@@H](C)CCCCO[C@H]1CN(C)C(=O)Nc1cccc2ccccc12 | inactive | inactive | inactive |
